According to EP4595979A1, “AURISTATIN DRUG WITH HIGH-STABILITY HYDROPHILIC LINKING UNIT AND CONJUGATE THEREOF” (priority 2022, dated 2024):

B1: ADC-1-2a (conjugate)
heavy: QVQLVQSGAEVKKPGASVKLSCKASGYTFTSFDINWVRQAPEQRLEWMGWIFPGDGNTKYSQKFQGRATITRDTSASTAYMELSSLRSEDTAVYYCVRGEALYYFDYWGQGTLVTVSS[omitted - human IgG1 constant region]
light: DIQMTQSPSSLSASVGDRVTITCRASQDINKYLAWYQQKPGKVPKLLIYSTSTLQSGVPSRFSGSGSGTDFTLTISSLQPEDVATYYCLQYDDLFTFGQGTKLEIKRTVAAPSVFIFPPSDEQLKSGTASVVCLLNNFYPREAKVQWKVDNALQSGNSQESVTEQDSKDSTYSLSSTLTLSKADYEKHKVYACEVTHQGLSSPVCTKSFNRGEC
B2: ADC-2-2a (conjugate)
heavy: QVQLVQSGAEVKKPGASVKLSCKASGYTFTSFDINWVRQAPEQRLEWMGWIFPGDGNTKYSQKFQGRATITRDTSASTAYMELSSLRSEDTAVYYCVRGEALYYFDYWGQGTLVTVSS[omitted - human IgG1 constant region]
light: DIQMTQSPSSLSASVGDRVTITCRASQDINKYLAWYQQKPGKVPKLLIYSTSTLQSGVPSRFSGSGSGTDFTLTISSLQPEDVATYYCLQYDDLFTFGQGTKLEIKRTVAAPSVFIFPPSDEQLKSGTASVVCLLNNFYPREAKVQWKVDNALQSGNSQESVTEQDSKDSTYSLSSTLTLSKADYEKHKVYACEVTHQGLSSPVCTKSFNRGEC
B3: ADC-C-2a: prepared by combining compound VcMMAE with anti-Trop2 antibody TR005 (conjugate)
heavy: QVQLVQSGAEVKKPGASVKLSCKASGYTFTSFDINWVRQAPEQRLEWMGWIFPGDGNTKYSQKFQGRATITRDTSASTAYMELSSLRSEDTAVYYCVRGEALYYFDYWGQGTLVTVSS[omitted - human IgG1 constant region]
light: DIQMTQSPSSLSASVGDRVTITCRASQDINKYLAWYQQKPGKVPKLLIYSTSTLQSGVPSRFSGSGSGTDFTLTISSLQPEDVATYYCLQYDDLFTFGQGTKLEIKRTVAAPSVFIFPPSDEQLKSGTASVVCLLNNFYPREAKVQWKVDNALQSGNSQESVTEQDSKDSTYSLSSTLTLSKADYEKHKVYACEVTHQGLSSPVCTKSFNRGEC

What was measured:
[1] = test system: A431 tumor-bearing mouse model; test: In vivo antitumor activity, A431 tumor-bearing mouse model; design: species or system BALB/c nude mice; settings: 2 mg/kg tail vein injection on days 0, 7, 14, 21
[2] = test system: human colon cancer cell line SW620 (negative control cells); test: In vitro cytotoxicity assay of ADCs (MTS); assay type: cell-based; settings: 120h
From the text: DMEM medium and RMPI1640 medium were purchased from Source Biotechnology, and fetal bovine serum was purchased from ExCellBio. Human skin squamous cell carcinoma cell line A431 (Trop2 positive expression cells), human primary pancreatic adenocarcinoma BxPC-3 (Trop2 positive expression cells), human gastric cancer cell line NCI-N87 (Trop2 positive expression cells) and human colon cancer cell line SW620 (negative control cells) were purchased from ATCC (American type culture collection) and cultured using the method recommended in the literature. […] Cell Titer 96® AQueous One Solution Cell Proliferation Assay was purchased from Promega.
Human skin squamous cell carcinoma cell line A431, human primary pancreatic adenocarcinoma BxPC-3, human gastric cancer cell line NCI-N87 and human colon cancer cell line SW620 in the logarithmic growth phase were selected. A certain number of tumor cell lines were inoculated in a 96-well plate, then the cells were treated with gradient dilutions of the test antibody and the corresponding ADCs for 5 days. Finally, the cell viability was detected by MTS, and the inhibitory effect of the test antibody and ADCs on the tumor cell line was evaluated by calculating IC50. The initial concentration of the ADCs was 500 nM, the dilution multiple was 7 times, a total of 8 concentration points, and the treatment lasted for 5 days. The cell survival rate was calculated as follows: ((OD value of the experimental group - OD value of the blank group)/(OD value of the control group - OD value of the blank group)) × 100%, and then the half-maximal inhibitory concentration (IC50) was calculated using GraphPad Prism. Table 7 In vitro cytotoxicity of ADCs (120h)

[3] = SEC detection of ADC monomer rate (SEC-HPLC); assay type: physicochemical
Procedure: Prepare SEC mobile phase 50mM PB+300mM NaCl+200mM Arg, IPA=95:5, adjust pH=6.5 (the meanings of the abbreviations are as follows: PB: phosphate buffer solution, Arg: arginine, IPA: isopropanol). Dilute the sample to a concentration between 1~2mg/ml and then centrifuge the sample at 14000rpm for 5 minutes or filter it with a 0.22µm filter to remove large particles in the sample. Place the sample bottle on the sample plate and set the position, injection volume, number of injection needles and injection method for each sample according to the "UPLC Standard Operating Procedure". The column model is: XBridge BEH SEC, 200Å, 1.7µm, 4.6*150mm, Waters.
Set the detection wavelength to 214nm and 280nm, and edit the running method as follows: […]

[4] = Body weight of mice in the A431 tumor-bearing mouse model (initial toxicity); settings: for Average Body Weight of Mice (g) D0 / Average Body Weight of Mice (g) D3 / Average Body Weight of Mice (g) D7 / Average Body Weight of Mice (g) D10 / Average Body Weight of Mice (g) D14 / Average Body Weight of Mice (g) D17 / Average Body Weight of Mice (g) D21 / Average Body Weight of Mice (g) D24 / Average Body Weight of Mice (g) D28: 2 mg/kg tail vein injection on days 0, 7, 14, 21; for toxicity judged by changes in body weight: 2 mg/kg, result in words

Row | Molecule | Mean Tumor Volume (mm^3) D0 [1] [mm^3] | Mean Tumor Volume (mm^3) D3 [1] [mm^3] | Mean Tumor Volume (mm^3) D7 [1] [mm^3] | Mean Tumor Volume (mm^3) D10 [1] [mm^3] | Mean Tumor Volume (mm^3) D14 [1] [mm^3] | Mean Tumor Volume (mm^3) D17 [1] [mm^3] | Mean Tumor Volume (mm^3) D21 [1] [mm^3] | Mean Tumor Volume (mm^3) D24 [1] [mm^3] | Mean Tumor Volume (mm^3) D28 [1] [mm^3] | IC50 [2] [nM] | Average Body Weight of Mice (g) D0 [4] [g] | Average Body Weight of Mice (g) D3 [4] [g] | Average Body Weight of Mice (g) D7 [4] [g] | Average Body Weight of Mice (g) D10 [4] [g] | Average Body Weight of Mice (g) D14 [4] [g] | Average Body Weight of Mice (g) D17 [4] [g] | Average Body Weight of Mice (g) D21 [4] [g] | Average Body Weight of Mice (g) D24 [4] [g] | Average Body Weight of Mice (g) D28 [4] [g] | toxicity judged by changes in body weight [4] | further results
1 | B1 | 183.78 | 286.15 | 390.57 | 471.77 | 516.78 | 589.15 | 595.04 | 599.58 | 779.54 | 296 | 21.98 | 22.00 | 22.10 | 22.87 | 23.61 | 23.55 | 23.91 | 24.03 | 24.03 | no obvious toxicity | Aggregation Rate (100%) [3]: 1.61%
2 | B2 | 182.57 | 391.54 | 596.61 | 716.69 | 775.49 | 811.97 | 951.41 | 929.08 | 1262.70 | 314 | 21.29 | 21.63 | 22.23 | 22.57 | 23.34 | 23.97 | 23.94 | 24.48 | 24.50 | no obvious toxicity | Aggregation Rate (100%) [3]: 2.02%; Degradation Rate (100%) [3]: 0.33%
3 | B3 | 182.16 | 336.26 | 570.83 | 632.82 | 911.55 | 1007.99 | 1287.42 | 1399.82 | 1915.84 | 598 | 21.72 | 22.02 | 22.25 | 23.13 | 23.69 | 24.29 | 24.56 | 25.34 | 25.61 | no obvious toxicity | –
